# According to PubChem BioAssay (Tox21):
# This list was built around the results that the source calls inconclusive (neither active nor inactive); the mix of calls is not that of the screen. For some of these results: Where the call is inconclusive, the potency comes from a doubtful curve fit. Active and inactive are the calls of the source. Unless noted, calls come from the whole dose curve; as a rule, active = well fitted curve in the direction sought with a large enough effect in the repeat runs; inconclusive = weak or mixed curves; inactive = no such curve, though single readings can be large; an effect the other way counts as inactive or inconclusive.
# Assay: qHTS assay for small molecule agonists of the antioxidant response element (ARE) signaling pathway (AID 743202; active = well fitted activation curve with a large enough effect in the signal ratio in the repeat runs, not every such curve was filed as active; inconclusive = weak or mixed curves, or effect the other way; inactive = no such curve, though single readings can be large or run the other way; the % refers to the signal ratio; note: potency is the fitted concentration of half-maximal effect)
# Conditions: HepG2 ARE-bla reporter, beta-lactamase FRET, 16 h; activation: at 73.3 µM (top of the series) unless noted
# Procedure, shortened: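 HepG2 ARE-bla reporter line, 2,000 cells/well; 5 h preincubation 37 C/5% CO2; compound (DMSO) 16 h 37 C; B/G FRET substrate 2 h RT; fluorescence intensity.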
# % is set by controls: 0 for no effect and ±100 for the full control effect; tags give direction and shape of the fitted curve or compound fluorescence and quenching.
Compound,Potency,activation
CCCCOCCOC(=O)c1cccnc1,inactive,
O=C(O)CO,,inconclusive: 2.92%
Cc1ccc(C(C)C)cc2c(C)ccc1-2,,inconclusive: 30.8%
C[N+]1(C)CCC(=C(c2ccccc2)c2ccccc2)CC1,,inconclusive: -15.6%
C=CCn1cc[n+](C)c1,inactive,
N#Cc1cc2ccccc2c2ccccc12,,inconclusive: 34.3% [at 94.8 µM]
CC(C)n1c(/C=C/[C@@H](O)C[C@@H](O)CC(=O)O)c(-c2ccc(F)cc2)c2ccccc21,,inconclusive: 17.3%
CCCCCCC[N+](CC)(CC)CCCCc1ccc(Cl)cc1,,inconclusive: -22.4%
O=[N+]([O-])c1cccc(S(=O)(=O)O)c1,,inconclusive: 21.9% [at 94.8 µM]
CCCOCC(C)OCC(C)O (stereo not drawn),,inconclusive: 22.4% [at 94.8 µM]
CN(C)Cc1cc(C(C)(C)C)c(O)c(C(C)(C)C)c1,active: 27.3 µM,
CCCCCCCCCCCC[N+](C)(C)CCCS(=O)(=O)[O-],inactive,

# Assay: qHTS assay for small molecule agonists of the antioxidant response element (ARE) signaling pathway - cell viability counter screen (AID 743203; calls by dose curve; note: nearly all actives have a fitted effect of over 55% in size)
# Conditions: ARE-bla HepG2 viability, CellTiter-Glo luminescence, 16 h; viability change, negative = cytotoxic: at 73.3 µM (top of the series)
# Procedure, shortened: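 Measured in the same wells as the beta-lactamase ARE reporter, this read-out is CellTiter-Glo luminescence from HepG2 ARE-bla cells given compounds for 16 hrs.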
row,Compound,Potency
1,Cc1nc(-c2ccc(Cl)cc2)oc1COC(C)(C)C(=O)O,inactive
2,C=CC(C)(C)CC(=O)OC,inactive
3,CCCC[P+](C)(CCCC)CCCC,inactive
4,CCCCC(CC)COCCCN (stereo not drawn),inactive

# Assay: qHTS assay for small molecule activators of the heat shock response signaling pathway - cell viability counter screen (AID 743209); note: nearly all actives have a fitted effect of over 50% in size; note: potency is the fitted concentration of half-maximal effect
# Conditions: HSE-bla HeLa viability, CellTiter-Glo luminescence, 5 h; activity change, negative = cytotoxicity: at 62.6 µM (top of the series) unless noted
# Procedure, shortened: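 Same-well multiplex: after 2.5 h room-temperature incubation with LiveBLAzer B/G substrate and fluorescence reading, CellTiter-Glo reagent was added to HSE-bla HeLa cells that had received compound for 5 h at 37 C; luminescence read after 30 min.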
Compound,Potency,"activity change, negative = cytotoxicity"
O=C(O)CC(C(=O)O)S(=O)(=O)O (stereo not drawn),"inconclusive: 49 µM [cytotoxic, partial curve]",
N[C@H](C(=O)O)c1ccc(O)cc1,"inconclusive: 0.0018 µM [cytotoxic, full curve, poor fit]",
Cc1nc(-c2ccc(Cl)cc2)oc1COC(C)(C)C(=O)O,,inconclusive: 13.2% [cytotoxic]
Cc1cccn2c(=O)c(-c3nnn[nH]3)cnc12,inactive,
CC[C@H](C)[C@H](N)C(=O)O,"inconclusive: 1.68 µM [cytotoxic, full curve]",
CCOC(=O)[C@H](CCc1ccccc1)N[C@@H](C)C(=O)N1C(=O)N(C)C[C@H]1C(=O)O,"inconclusive: 6.68 µM [cytotoxic, single point]",
CNCc1ccccc1,"inconclusive: 0.188 µM [cytotoxic, full curve, poor fit]",
CC(=O)/C=C/C=C1/C2CCC(C2)C1(C)C (stereo not drawn),"inconclusive: 2.98 µM [cytotoxic, full curve]",
Cc1ncc(CSSCc2cnc(C)c(O)c2CO)c(CO)c1O,,inconclusive: -21.5% [cytotoxic]
CCCC[P+](C)(CCCC)CCCC,,inconclusive: -31.8% [cytotoxic] [at 81.1 µM]

# Assay: qHTS assay for small molecule activators of the heat shock response signaling pathway (AID 743210; active = well fitted activation curve with a large enough effect in the signal ratio in the repeat runs, with a control signal flat, not every such curve was filed as active; inconclusive = weak or mixed curves; the % refers to the signal ratio; note: potency is the fitted concentration of half-maximal effect;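 for activation: HeLa cells with beta-lactamase reporter driven by heat shock elements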)
# Conditions: HeLa HSE-bla reporter, beta-lactamase ratio, 5 h; activation: at 62.6 µM (top of the series) unless noted
# Procedure, shortened: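 Beta-lactamase reporter read-out: FRET substrate fluorescence after 2.5 h at RT, following 5 h compound treatment at 37 C of HeLa cells carrying HSE-driven bla reporter; quantitative HTS format.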
row,Compound,Potency
1,O=C(O)CC(C(=O)O)S(=O)(=O)O (stereo not drawn),"inconclusive: 61.6 µM [falling, single point]"
2,Cc1nc(-c2ccc(Cl)cc2)oc1COC(C)(C)C(=O)O,inactive
3,CCCOC(=O)C(C)O (stereo not drawn),"inconclusive: 62.9 µM [activator, single point]"
4,Nc1nc2c(ncn2COCCO)c(=O)[nH]1,inactive
5,c1ccc(CNCc2ccccc2)cc1,inactive
6,O=C(c1ccccc1)C1CCC1,inconclusive: 57.1 µM [activator]
7,COc1ccc2c(c1OC)C(=O)O[C@@H]2[C@H]1c2c(cc3c(c2OC)OCO3)CCN1C,inactive
8,CCCCC(CC)COC(=O)C(C#N)=C(c1ccccc1)c1ccccc1 (stereo not drawn),inconclusive: 58.2 µM
9,C=CCOC(=O)C(=C)C,inactive
10,CC(CN(C)C)C(C)(O)Cc1ccc(Cl)cc1 (stereo not drawn),"inconclusive: 37.6 µM [activator, partial curve, poor fit]"
11,C=C[Si](OC(C)=O)(OC(C)=O)OC(C)=O,inconclusive: 49 µM [activator]
12,O=C1NCCN1CCO,inactive

# Assay: qHTS assay to identify small molecule agonists of the peroxisome proliferator-activated receptor delta (PPARd) signaling pathway - cell viability counter screen (AID 743211); note: nearly all actives have a fitted effect of over 55% in size; note: potency is the fitted concentration of half-maximal effect
# Conditions: PPARd-bla HEK293H viability, CellTiter-Glo luminescence, 17 h; activity change, negative = cytotoxicity: at 62.6 µM (top of the series)
# Procedure, shortened: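 Luminescent ATP viability assay (CellTiter-Glo, 30 min RT) in UAS-bla HEK293H cells carrying the PPAR delta reporter construct, 3000 cells/well, after a 17 h compound treatment at 37 C.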
row,Compound,Potency
1,O=C(O)CC(C(=O)O)S(=O)(=O)O (stereo not drawn),inactive
2,CCCCOCCOC(=O)c1cccnc1,inactive
3,Nc1cc(-c2ccncc2)c[nH]c1=O,"inconclusive: 0.0473 µM [rising, full curve]"
4,O=C(O)CO,inactive
5,Cc1ccc(C(C)C)cc2c(C)ccc1-2,inactive
6,CCCOC(=O)C(C)O (stereo not drawn),"inconclusive: 62.9 µM [cytotoxic, single point]"
7,C[N+]1(C)CCC(=C(c2ccccc2)c2ccccc2)CC1,inactive
8,C=CCn1cc[n+](C)c1,inactive
9,N#Cc1cc2ccccc2c2ccccc12,"inconclusive: 1.56 µM [cytotoxic, full curve, poor fit]"
10,CC(C)n1c(/C=C/[C@@H](O)C[C@@H](O)CC(=O)O)c(-c2ccc(F)cc2)c2ccccc21,"inconclusive: 38.9 µM [cytotoxic, partial curve, poor fit]"
11,CC(=O)N(CC(O)CO)c1c(I)c(C(=O)NCC(O)CO)c(I)c(C(=O)NCC(O)CO)c1I (stereo not drawn),"inconclusive: 0.668 µM [cytotoxic, single point]"
12,CCCCCCC[N+](CC)(CC)CCCCc1ccc(Cl)cc1,"inconclusive: 29.8 µM [cytotoxic, partial curve, poor fit]"
13,Cc1ccc(C(C)OC(=O)C2(C)CCC(C(=O)O)C2(C)C)cc1 (stereo not drawn),"inconclusive: 1.33 µM [cytotoxic, single point]"
14,O=[N+]([O-])c1cccc(S(=O)(=O)O)c1,inactive
15,CCCOCC(C)OCC(C)O (stereo not drawn),inactive
16,CCOC(=O)C(C)O (stereo not drawn),inactive
17,CN(C)Cc1cc(C(C)(C)C)c(O)c(C(C)(C)C)c1,"inconclusive: 38.9 µM [cytotoxic, partial curve]"
18,CCCCCCCCCCCC[N+](C)(C)CCCS(=O)(=O)[O-],"inconclusive: 22.1 µM [cytotoxic, partial curve]"
19,CC1(C)C(C=C(Cl)Cl)C1C(=O)OCc1cccc(Oc2ccccc2)c1 (stereo not drawn),inactive
20,COc1ccc([C@@H]2Sc3ccccc3N(CCN(C)C)C(=O)[C@@H]2OC(C)=O)cc1,inactive
